# Among all 340,000 compounds or so, about 12,000 (3.5%) were called active. The inconclusive results got no clear call from the source; some entries with a clear call stand among them for comparison. Calls follow the shape of the dose curve; as a rule, active = well fitted inhibition curve with a large enough effect; inconclusive = small, poorly fitted or top-dose-only effect, or another doubt; inactive = no such curve, though single readings can be large or run the other way. No potency is given beside an inconclusive call; the fits are too rough.
# Assay: qHTS Assay for Inhibitors of Hepatitis C Virus (HCV)
# Conditions: Huh7.5.1 HCVcc-Cre (HCVcc is cell-culture hepatitis C virus) infection, luciferase reporter, 44 h; activity change, negative = inhibition: at 41.8 µM (top of the series) unless noted
# In short: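 HCVcc-Cre virus at an moi near 0.5 was added right after compound to cells cultured 4 h from seeding (1,000 cells/well). Luciferase activity was determined 44 h later, 15 min after substrate addition at RT.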
# % is scaled to controls: 0 for no effect and ±100 for the full control effect; potency is read from the fitted curve at half-maximal effect; tags tell the direction and shape of the fitted curve.
Compound,Potency,"activity change, negative = inhibition"
CCC(C)N(C)Cc1cccc(C2(O)CCN(S(=O)(=O)c3ccc(F)cc3)CC2)c1 (configuration not stated),"inconclusive [inhibitor, partial curve]",–
CCOC(=O)c1c(NC(=S)NNS(=O)(=O)c2ccc(Br)cc2)sc2c1CCCCC2,"inconclusive [inhibitor, partial curve]",–
COc1cc2c(cc1NC(=O)COC(=O)C1CC(=O)N(Cc3ccco3)C1)oc1ccccc12 (configuration not stated),active: 4.47 µM,–
CC(=O)Nc1ccc2c(c1)C(=Nc1ccc(C)cc1)c1ccccc1-2,"inconclusive [inhibitor, partial curve]",–
Cc1[nH]c2ccccc2c1C1C(c2ccccc2)=NN=C(C(C)C)N1O (configuration not stated),inactive,–
Cc1cccc(OCC(=O)N/N=C/c2ccc3c(c2)OCO3)c1,inactive,–
c1ccc(CCCCN2C(Nc3ccccc3)=NC[C@@H]2Cc2ccccc2)cc1,"inconclusive [inhibitor, partial curve]",–
C=CCn1c(SCC(=O)Nc2cccnc2Cl)nnc1-c1ccc(C(C)(C)C)cc1,inactive,–
COc1ccc(/C=C2\SC(=N)N(c3ccc(F)cc3)C2=O)cc1OC,"inconclusive [inhibitor, partial curve, poor fit]",–
Cn1c(SCC(=O)NC2CCCC2)nnc1-c1ccco1,inactive,–
C[C@H](CO)N1C[C@H](C)[C@H](CN(C)S(=O)(=O)c2cccs2)Oc2ccc(NC(=O)Nc3ccc4c(c3)OCO4)cc2CC1=O,inactive,–
CC1(C(=O)N/N=C/c2ccc3c(c2)OCO3)CC1(Br)Br (configuration not stated),inactive,–
CCc1cccc(OCCOC(=O)CNS(=O)(=O)c2ccc(NC(C)=O)cc2)c1,inactive,–
CCN(CC)CCn1c(N)c(S(=O)(=O)c2ccccc2)c2nc3ccccc3nc21,"inconclusive [inhibitor, partial curve]",–
CCOC(=O)c1cnc(-n2nc(C)cc2C)nc1NCc1ccc2c(c1)OCO2,"inconclusive [inhibitor, single point]",–
COc1cc2c(cc1OC)C(c1ccc(C(F)(F)F)cc1)CC(=O)N2 (configuration not stated),inactive,–
CC(C)(C)c1ccc(S(=O)(=O)Nc2ccc(Cc3ccncc3)cc2)cc1,"inconclusive [inhibitor, partial curve]",–
CCOc1ccccc1N(CC)C(=O)c1ccc2c(=O)n3c(nc2c1)CCCCC3,inactive,–
CCCCCn1c(CN2CCN(c3cccc(Cl)c3)CC2)nc2c1c(=O)n(C)c(=O)n2C,"inconclusive [inhibitor, partial curve]",–
Cc1cc(S(=O)(=O)Nc2ccc(C(=O)NCC3(N4CCCCC4)CCCCC3)cc2)ccc1F,inactive,–
CCCCOc1ccc(C(=O)OC2CC(C)N(C)CC2C)cc1 (configuration not stated),active: 4.47 µM,–
Cc1cc(NC(=O)CSc2nc3c(c(-c4cccnc4)c2C#N)CCC3)no1,"inconclusive [inhibitor, full curve, poor fit]",–
CCCOc1ccc(C(=O)CCNC(Cc2c[nH]c3ccccc23)C(=O)O)cc1 (configuration not stated),inactive,–
O=c1oc(-c2ccc(O)c(O)c2)cc2cccc(O)c12,"inconclusive [inhibitor, single point]",–

Compound,Potency,"activity change, negative = inhibition"
O=C(c1cnn2c(C(F)F)cc(-c3ccccc3)nc12)N1CCSCC1,"inconclusive [inhibitor, single point]",–
O=C(Nc1nccs1)c1ccc(-c2ccccc2[N+](=O)[O-])o1,"inconclusive [inhibitor, single point]",–
Cc1cccc(NC(=O)c2ccc(S(=O)(=O)N3CCCCC3)cc2)n1,inactive,–
COc1ccc(OC)c(/C=C/C(=O)Nc2cccc(S(=O)(=O)NC3=NCCCCC3)c2)c1,"inconclusive [inhibitor, partial curve]",–
CCOC(=O)C1=C(CSc2nc3c(cc2C#N)CN(C)CC3)OC(N)=C(C#N)C1c1ccccc1 (configuration not stated),"inconclusive [inhibitor, single point]",–
CS(=O)(=O)N(CC(N)=O)c1cccc(Br)c1,"inconclusive [inhibitor, single point]",–
Nc1ccc(C(=O)Nc2ccc(NC(=O)c3ccco3)c(O)c2)cc1,"inconclusive [inhibitor, single point]",–
COCCN(C(=O)COC(=O)CCCc1c[nH]c2ccccc12)c1c(N)n(Cc2ccccc2)c(=O)[nH]c1=O,inactive,–
CCOc1cc2[nH]c(=S)n(CCOC)c(=O)c2cc1OCC,"inconclusive [inhibitor, partial curve]",–
O=C(Nc1ccc(N2CCN(C(=O)c3ccco3)CC2)c(Cl)c1)c1cccs1,"inconclusive [inhibitor, partial curve]",–
Fc1cc(F)cc(-c2c(-c3ccccc3)ncc3ccc(F)cc23)c1,"inconclusive [inhibitor, single point]",–
CN1CCN(c2cc(N3CCCC3)c([N+](=O)[O-])cc2F)CC1,"inconclusive [inhibitor, partial curve]",–
COCC(C)N1CCC(Oc2cccc(C(=O)NCCc3ccccc3)c2)CC1 (configuration not stated),inactive,–
CCOC(=O)c1c(NC(=O)C(C)NCc2ccco2)sc2c1CCC(C)C2 (configuration not stated),"inconclusive [inhibitor, partial curve]",–
CCCCN(C(=O)c1ccc2c(c1)S(=O)(=O)N=C1CCCCCN12)c1c(N)n(CC(C)C)c(=O)[nH]c1=O,inactive,–
CCC(NC(=O)CCc1nnc(-c2cc(C)on2)o1)C12CC3CC(CC(C3)C1)C2 (configuration not stated),inactive,–
NS(=O)(=O)c1ccc(NC(=O)/C=C/c2cn(-c3ccccc3)nc2-c2cccc(Cl)c2)cc1,"inconclusive [inhibitor, single point]",–
CC(C)C(=O)N1CCN(c2ccc(NC(=O)c3ccc(Br)o3)cc2)CC1,inactive,–
C=C(Cl)COc1ccc2c(C)cc(=O)oc2c1,"inconclusive [inhibitor, single point]",–
CCCCn1c(N)c(N(CCC(C)C)C(=O)C2CSC3(C)CCC(=O)N23)c(=O)[nH]c1=O (configuration not stated),inactive,–
O=c1[nH]c2ccccc2n1CCCN1CCC(n2c(=O)[nH]c3cc(Cl)ccc32)CC1,"inconclusive [inhibitor, partial curve, poor fit]",inactive: -4.76% [at 8.37 µM]
CCOc1ccc(S(=O)(=O)N2CCN(C)CC2)cc1NC(=O)c1ccccc1F,inactive,–
CCc1c(C)nc(Nc2nc(C)c3ccc(OC)cc3n2)[nH]c1=O,"inconclusive [inhibitor, partial curve, poor fit]",–
CC(NC(=O)CCc1nnc(CCCc2ccccc2)o1)c1ccccc1 (configuration not stated),"inconclusive [inhibitor, full curve]",–

Compound,Potency,"activity change, negative = inhibition"
CC(NC(=S)Nc1ccc([N+](=O)[O-])cc1)c1ccncc1 (configuration not stated),"inconclusive [inhibitor, single point]",–
S=C(NCc1ccc(Cl)cc1)NC1CCN(Cc2ccccc2)CC1,active: 3.98 µM,–
O=C(N/N=C/c1ccc(Cl)cc1Cl)c1ccc(-n2cnnn2)cc1,"inconclusive [inhibitor, partial curve, poor fit]",–
CSc1ccc(/C=C(/NC(=O)c2ccco2)C(=O)NCc2ccco2)cc1,"inconclusive [inhibitor, partial curve, poor fit]",–
Cc1ccc(-n2ncc3c2CC(C)(C)CC3NC(=O)C2CCOCC2)cc1 (configuration not stated),inactive,–
CCOC(=O)C1CCN(CC(=O)Nc2c(C(=O)OC)[nH]c3ccc(Cl)cc23)CC1,active: 10 µM,–
Cc1sc2nc(SCC(=O)C(C)(C)C)n(Cc3ccco3)c(=O)c2c1C,"inconclusive [inhibitor, single point]",–
CC(=O)OC1CCC2(C)C(CCC3C4CC(N5CC5)C(C(C)=O)C4(C)CC(=O)C32)C1 (configuration not stated),"inconclusive [inhibitor, single point]",–
N=c1occ(C(=O)c2cc(F)ccc2O)cc1C(=O)NC1CCCCC1,"inconclusive [inhibitor, single point]",–
CCCCNc1nc(N(C)c2ccccc2)nc(-n2ccnc2)n1,"inconclusive [inhibitor, partial curve]",–
OC(CN1CCN(c2cccc(C(F)(F)F)c2)CC1)c1c[nH]c2ccccc12 (configuration not stated),inactive,–
Cc1cc(Cl)ccc1OCCCC(=O)NNC(=O)c1ccccc1O,"inconclusive [inhibitor, single point]",–
Cc1cc(C(=O)NCCc2ccc(Cl)cc2)c2ccccc2n1,inactive,–
CCCCn1c(N)c(N(CC)C(=O)CN2C(=O)NC(C)(c3ccccc3)C2=O)c(=O)[nH]c1=O (configuration not stated),inactive,–
O=C(c1ccc(-c2ccccc2)cc1)N1CCN(c2ncccn2)CC1,inactive,–
CC(=O)c1ccc(N2Cc3ccccc3C2=NC(=O)c2cccs2)cc1,"inconclusive [inhibitor, single point]",–
O=C(NCCc1c[nH]c2ccccc12)c1cc(S(=O)(=O)N2CCCCC2)ccc1N1CCOCC1,inactive,–
COc1cccc(-c2csc(N3CCN(C(=S)Nc4ccccc4Cl)CC3)n2)c1,"inconclusive [inhibitor, single point]",–
CC1=NN(c2ccccc2)C(=O)C1C=Nc1ccc(N(C)C)cc1 (configuration not stated),inactive,–
COc1ccc(C2C(C(=O)OC(C)C)=C(C)N=c3s/c(=C\c4cccs4)c(=O)n32)cc1 (configuration not stated),inactive,–
O=C(CSc1ccc([N+](=O)[O-])cn1)Nc1ccc2c(c1)OCO2,inactive,–
COc1cccc(-c2nnc(NC(=O)CCS(=O)(=O)c3ccc(C)cc3)o2)c1,inactive,–
Cc1nc2ccc(NC(=O)COc3cccc(F)c3)cc2s1,inactive,–
